From the supplement of paper PMC11417369
± gives the standard deviation of the averaged measurements. Some of the results follow.

These sequences were tested on PfAP2-LT AP2 domain (GST-tagged) (assay: gcPBM binding intensity (ln(normalized median fluorescence intensity)); higher = stronger DNA binding).
Summary of the method: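 Each value is the highest Masliner-normalised natural-log median intensity across replicate spots of either orientation of a probe. The probes were primer-extended double-stranded 36-bp intergenic genomic sequences on an Agilent 4 × 180k array, alongside negative controls, exposed for 1 h to GST-tagged P. falciparum DNA-binding domains expressed in E. coli. Bound protein was picked up with Alexa488 anti-GST antibody and scanned at 488 nm.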

Sequence	gcPBM binding intensity (ln)
TATATACCTATATATACACACAAATACATAAGCTTC [CACACA_site1369]	9.09 ± 0.35
AAATATTTTTTAATGTGTACATAGAACATATATATA [XGTACX_site3136]	8.52 ± 0.38
ATAATATATATATTATGTACATATAAATTTTTTTTT [XGTACX_site5826]	8.7 ± 0.42
TATAACTATAAAAGGAGTACTATATATATATATATA [XGTACX_site1388]	9.37 ± 0.014
ACTTATTTATTTTTAGTGCATTTAGTTTTATTTTAT	9.03 ± 0.41
AGTATACACAAACACACACACACAAAAAAAAAAAAA [CACACA_site8036]	9.56 ± 0.31
TATTTGCAATGCAAATGTACATGAATTTTTTTAATG [XGTACX_site7474]	8.46 ± 0.39
TAAAAAGAAAAAAAGAGTACAAACAAAATAATAATT [XGTACX_site6071]	8.99 ± 0.46
AATAGTACAAAAAAAAAAAAAAAAAAAAAAAAAAAA [CACACA_negctrl_site1376]	8.16 ± 0.31
TCTACAAAATTATCATGTACATATTATTATAATTAT [XGTACX_site6585]	8.68 ± 0.49
TTTTTTAAAAAACAAACACACACGTAGAAAAAAAAA [CACACA_site826]	8.94 ± 0.46
TAATTATATGGATACACACACATACATTTACATAAC [CACACA_site5744]	9.39 ± 0.29
TATAAATATAAATACACACACACACGCCAAAGCGTA [CACACA_site6181]	9.6 ± 0.32
TTTTTTTATTTTTGTTGTACTTATAATTCTGTAAAA [XGTACX_site7344]	8.4 ± 0.51
AAGAAAAATGTGTTTTTTTTTTTTTTTTTTTTCAAT [TGCATGCA_negctrl_site404]	8.21 ± 0.42
TGTGAAATAAAATTTATACACACTTGCTAAATGATC [CACACA_site181]	8.73 ± 0.37
CTTTTTTTTTTAAATAGTACTTTCTCGTATACTCAT [XGTACX_site1842]	8.79 ± 0.47
AATATATTTATATATAGTACTTTTATAATATCGTTT [XGTACX_site6658]	8.7 ± 0.41
AATACACATAATACATGTACTCACATTGTTATAACA [XGTACX_site4129]	8.97 ± 0.33
TTTTTTATTTATTGTTATACATCTTACTACTTATAA [GTGCAC_negctrl_site381]	8.88 ± 0.49
GATATGATTAACTTATGTTATTCTTGATGATTACGT [CACACA_negctrl_site354]	8.86 ± 0.38
TACAAATTAATATGTACACACAAATATAAATATGTA [CACACA_site7016]	9.01 ± 0.36
TACGTTATATACAACTGTACTTGGATAATTATTAAC [XGTACX_site5614]	8.81 ± 0.38
TTTTCTTTTTTGAACTGTACGCGTAAATTTAAAAAG [XGTACX_site882]	8.29 ± 0.38
AAGTTTTTTTCTTTTTTTCTCTCTTTTTTTTTTTTT [XGTACX_negctrl_site613]	8.54 ± 0.46
